Test results published in PubChem BioAssay AID1460 (National Center for Advancing Translational Sciences (NCATS), 2008).
In all, about 270,000 compounds went through this assay and about 5,800 (2.1%) were called active. Inconclusive means that the source gave no clear call. Such entries were picked first, then a sample of the others. Calls come from the whole dose curve; as a rule, active = well fitted inhibition curve with a large enough effect; inconclusive = small, poorly fitted or top-dose-only effect; inactive = flat fitted curve, though single readings scatter. Where the call is inconclusive, the potency comes from a doubtful curve fit.

target: Microtubule-associated protein tau (Homo sapiens) (UniProt P10636); assay: qHTS for Inhibitors of Tau Fibril Formation, Thioflavin T Binding; details: recombinant tau K18 P301L (four-repeat tau fragment), heparin-induced fibrillization, ThT fluorescence; series mostly up to 57.4 µM; activity, negative = inhibition: at the top concentration; note: nearly all actives have a fitted effect of over 55% in size
UniProt P10636, sequence (P10636 whole entry, looked up, the tested form may be a part): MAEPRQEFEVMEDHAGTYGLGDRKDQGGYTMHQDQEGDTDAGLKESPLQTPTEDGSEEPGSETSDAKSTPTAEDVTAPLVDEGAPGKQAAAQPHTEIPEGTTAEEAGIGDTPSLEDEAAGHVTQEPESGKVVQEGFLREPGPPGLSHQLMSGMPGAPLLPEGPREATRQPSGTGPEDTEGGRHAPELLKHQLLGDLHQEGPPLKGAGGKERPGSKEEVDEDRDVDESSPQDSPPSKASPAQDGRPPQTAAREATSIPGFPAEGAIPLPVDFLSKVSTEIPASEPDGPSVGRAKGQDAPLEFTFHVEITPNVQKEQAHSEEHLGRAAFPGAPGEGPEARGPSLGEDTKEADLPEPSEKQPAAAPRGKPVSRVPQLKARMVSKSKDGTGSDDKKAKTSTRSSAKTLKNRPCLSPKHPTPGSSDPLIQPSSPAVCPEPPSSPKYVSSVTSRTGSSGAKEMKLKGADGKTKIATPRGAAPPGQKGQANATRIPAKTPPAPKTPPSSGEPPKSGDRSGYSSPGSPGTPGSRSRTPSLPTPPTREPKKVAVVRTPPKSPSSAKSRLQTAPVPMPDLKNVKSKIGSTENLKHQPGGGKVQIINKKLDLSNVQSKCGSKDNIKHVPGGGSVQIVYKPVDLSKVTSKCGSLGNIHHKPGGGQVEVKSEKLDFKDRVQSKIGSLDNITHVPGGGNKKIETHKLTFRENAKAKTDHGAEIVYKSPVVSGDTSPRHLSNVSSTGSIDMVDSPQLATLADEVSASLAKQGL
Outline: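 Aggregation was driven by heparin (20 uM final) acting on recombinant tau […] bearing P301L in 100 mM sodium acetate pH 7; fibrils were detected with Thioflavin T.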
% is set by controls: 0 for no effect and ±100 for the full control effect; potency is the fitted concentration of half-maximal effect; tags give direction and shape of the fitted curve.

Compound	Potency	activity, negative = inhibition
CCC(C(=O)Nc1ccccc1-c1ccccc1)c1ccccc1 (configuration not stated)	inconclusive: 31.6 µM [inhibitor, single point]	–
CC(=O)Nc1nc(-c2ccc([N+](=O)[O-])cc2)cs1	–	inactive: -4.8%
COc1ccccc1/C=C/C=N/n1c(-c2cc(C)[nH]n2)n[nH]c1=S	inconclusive: 4.47 µM [inhibitor, partial curve]	–
COc1ccc2nc(/C(C#N)=C\c3ccc(C(=O)O)cc3)[nH]c2c1	inconclusive: 15.8 µM [inhibitor, partial curve]	–
CCc1ccc(C2C(C(=O)Nc3ccccc3C)=C(C)Nc3nc(SCc4cccc(OC)c4)nn32)cc1 (configuration not stated)	–	inactive: 2.2%
COc1ccc(CCNC(=O)C2CCCN(c3ncccn3)C2)cc1 (configuration not stated)	–	inactive: 0.317%
Cc1ccc(C2C(C(N)=S)=C(N)OC3=C2C(=O)CC(C)(C)C3)cc1 (configuration not stated)	inconclusive: 14.1 µM [inhibitor, partial curve]	–
COc1ccc(CCNc2ccc(C(CC(N)=O)NC(=O)Cc3ccc(Br)cc3)cc2[N+](=O)[O-])cc1 (configuration not stated)	inconclusive: 12.6 µM [inhibitor, partial curve]	–
O=C(c1cccc(F)c1)N1CCN(c2ccc([N+](=O)[O-])c(N3CCOCC3)c2)CC1	inconclusive: 31.6 µM [inhibitor, single point]	–
S=c1[nH]nc(NCCCN2CCOCC2)s1	inconclusive: 28.2 µM [inhibitor, single point]	–
N#Cc1c(NC(=O)CSC2=NCCS2)sc2c1CCCC2	inconclusive: 20 µM [inhibitor, partial curve]	–
Cc1ccc(-c2ccc(/C=C3\C(=O)ON=C3c3ccccc3)o2)c([N+](=O)[O-])c1	active: 15.8 µM	–
C(=C\c1ccco1)/c1nc2ccccc2[nH]1	–	inactive: 4.05%
C/C(=C\c1ccco1)C1Nc2cccc3cccc(c23)N1	inconclusive: 3.16 µM [inhibitor, full curve]	–
Cc1cccc(OCC(=O)Nc2nc3ccc([N+](=O)[O-])cc3s2)c1	active: 2 µM	–
CCOC(=O)c1c(C)[nH]c(C)c1S(=O)(=O)NCC(=O)NCc1cccc(C)c1	–	inactive: 3.96%
CSc1cccc(NC(=O)C2(S(=O)(=O)c3ccc(C)cc3)CC2)c1	–	inactive: -7.68%
O=c1cc(-c2ccc(F)cc2)nc(SCc2nc(-c3ccc(Cl)cc3)no2)[nH]1	–	inactive: 11%
CC(C)=CCn1cnc2c1C(NOCc1ccccc1)=NCN2	–	inactive: -0.599%
CC(C)(C)C(=O)/C=C/c1ccc(Oc2ccccc2)cc1	–	inactive: -15.2%
COc1ccc(CCn2c(C)ccc2C)cc1OC	–	inactive: -14.5%
Cc1cc(OCCSc2nnc(-c3cccs3)n2C)ccc1Cl	inconclusive: 1.12 µM [inhibitor, full curve]	–
